According to ChEMBL document CHEMBL1201862, “PubChem BioAssay data set” (2004):
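Assay format: 96-well plates, 48-hour exposure. GI50: concentration for 50% inhibition of growth.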 Active and inactive are the calls of the source. Rule as the data show it: active = GI50 up to about 1.1 µM and inactive = higher.

The compounds below were run on NCI-H322M (assay: NCI-60 cell line screen, 48 h).

SMILES	GI50
COCN1C(=O)[C@@H]2CCCN2C(=O)c2ccc(Cl)cc21	inactive: > 100 µM
CN(C)/C=C/C=C(/C=N/S(=O)(=O)C(F)(F)F)C1C=CN(S(=O)(=O)C(F)(F)F)C=C1	inactive: 36.5 µM
CC(=O)OC1COC(n2nc(N)nc2C)C(OC(C)=O)C1OC(C)=O (stereo not drawn)	inactive: > 100 µM
S=C1Cc2c([nH]c3ccccc23)-c2ccccc2N1	inactive: 29.2 µM
O=S(=O)(O)c1c(/N=N/c2c(O)ccc3ccccc23)ccc2ccccc12	inactive: > 100 µM
O=C1C=CC[C@H]2O[C@@H](COC(=O)Cc3ccccc3)C[C@H]2O1	inactive: 31.4 µM
COc1c2cc([N+](=O)[O-])cc1CN(C(=O)C(F)(F)F)CCOCCN(C(=O)C(F)(F)F)C2	inactive: > 100 µM
CN(Cc1ccccc1)c1cc(=O)n(C)c(=O)[nH]1	inactive: > 100 µM
CCOc1ccc2c(c1)[n+]([O-])c(-c1ccccc1Cl)c(N)[n+]2[O-]	inactive: > 100 µM
Cc1nc2c(=O)[nH]c3ccc(Cl)cc3c2o1	inactive: > 100 µM
CCN(CC)c1ccc(/C=C/C=C2C(=O)NC(=S)NC2=O)cc1	inactive: > 100 µM
O=C(O)c1ccc2c(c1)CC1(C2)Cc2ccccc2C1=O (stereo not drawn)	inactive: > 100 µM
Clc1ccc2c(NCCCC/N=C/c3ccccc3)ccnc2c1	inactive: 14.7 µM
CC(O)C(N/C=C1/N=C(c2ccccc2)OC1=O)C(=O)O (stereo not drawn)	inactive: > 100 µM
CCN(CC)C1CC(O[C@H]2C[C@](O)(C(=O)CO)Cc3c(O)c4c(c(O)c32)C(=O)c2c(OC)cccc2C4=O)OC(C)C1O (stereo partly drawn)	active: 0.0148 µM
C(=C\c1cc[n+](CCc2ccccc2)cc1)/c1ccccc1	inactive: 18.2 µM
N#C[C@](CO)(NC(=O)OCc1ccccc1)C(F)F	inactive: > 100 µM
CCOc1ccc(NCC2CC/C(=C\c3ccc(O)cc3)C2=O)cc1 (stereo not drawn)	inactive: 44 µM
OCCc1cnco1	inactive: > 100 µM
O=C(Nc1ccc(Cl)cc1)C1C(=O)C(=O)N(c2ccc(Cl)cc2)C1=O (stereo not drawn)	inactive: 90.4 µM
C=CCC1CC(n2cc(C)c(=O)[nH]c2=O)OC1CO[Si](C)(C)C(C)(C)C (stereo not drawn)	inactive: 15.2 µM
Cn1nc(C(=O)N2CC(CCl)c3c2cc([N+](=O)[O-])c2ccccc32)cc1NC(=O)Nc1cc(C(=O)N2CC(CCl)c3c2cc([N+](=O)[O-])c2ccccc32)nn1C (stereo not drawn)	inactive: > 100 µM
c1ccc2c(c1)[nH]c1c2nc2ncccn21	inactive: > 100 µM
CC(Oc1ccc(OCC2CCCCC2)cc1)C(=O)N(CCO)CCO (stereo not drawn)	inactive: > 100 µM

SMILES	GI50
c1ccc(C(=NNc2cnc3ccccc3n2)c2ccccn2)cc1	inactive: 2.26 µM
COc1ccccc1/C=N/C12CC3CC(CC(C3)C1)C2	inactive: > 100 µM
N#C/C(=C\c1ccncc1)c1csc2ccccc12	inactive: 30.1 µM
COc1cc(O)c2c(=O)cc(C3(OC(C)=O)C=CC(OC4OC(CO)C(O)C(O)C4O)C=C3)oc2c1 (stereo not drawn)	inactive: > 100 µM
C=CCN(C(=O)OC(C)(C)C)C1=CC2C(C)=CN(S(=O)(=O)c3ccccc3)C2C(OCc2ccccc2)=C1 (stereo not drawn)	inactive: > 100 µM
O=[N+]([O-])c1ncc(N(CCO)CCO)s1	inactive: > 100 µM
COc1cc2c(cc1OC)C1CCc3ccccc3CN1CC2 (stereo not drawn)	inactive: > 100 µM
CCCc1c2c([nH]c(=O)c1C)C(=O)c1[nH]c(=O)c(C)c(CCC)c1C2=O	inactive: 12.9 µM
CCOC(=O)CC1(O)CCCCC1(Sc1ccc(C)cc1)Sc1ccc(C)cc1 (stereo not drawn)	inactive: 70.6 µM
CCN(CC)CCNC(=O)c1ccc(C)c(OCc2ccccc2)c1[N+](=O)[O-]	inactive: > 69.2 µM
COC(=O)/C=C\COCC1C2CCC(=O)C21 (stereo not drawn)	inactive: > 25 µM
COc1ccc([S+]([O-])Cc2cc(OC)c(OC)c(OC)c2)cc1 (stereo not drawn)	inactive: > 100 µM
c1ccc2c(CN3CCC(C4CCN(Cc5cccc6ccccc56)CC4)CC3)cccc2c1	inactive: 9.66 µM
Cc1[nH]c(=O)[nH]c(=S)c1C(=O)NC(C)(CO)CO	inactive: > 100 µM
CCOC(=O)[C@H]1Nc2ccc(C)cc2C2c3ccccc3CC21 (stereo partly drawn)	inactive: > 100 µM
COC(=O)/C(Cl)=C1/CC1COCc1ccccc1 (stereo not drawn)	inactive: > 100 µM
NC(Cc1ccccc1)(C(=O)O)C(=O)O	inactive: > 100 µM
O=C(N/N=C/c1cc(Br)cc(Br)c1O)c1ccccc1O	inactive: 1.49 µM
Clc1ccc(Cc2nc3ccccc3o2)cc1	inactive: > 100 µM
C=C1C(=O)OC2/C=C(\C=O)CC/C=C(\C)C(O)C[C@@H]12 (stereo partly drawn)	inactive: 15.8 µM
CC(C)C1CC(O)O[C@@H]([C@@H](C)[C@H]2CC(=O)[C@@H]3[C@@H]4[C@@H](O)[C@H](O)[C@H]5[C@@H](O)[C@H](O)CC[C@]5(C)[C@H]4CC[C@]23C)C1 (stereo partly drawn)	inactive: 59 µM
COc1cccc(-c2cc(=O)c3ccccc3o2)c1N	inactive: 81.3 µM
NCC(O)CSCc1ccc(Cl)cc1 (stereo not drawn)	inactive: > 100 µM
COc1ccccc1-c1cc(O)c2cccnc2n1	inactive: 43.2 µM
